Measurements as given in the supplement of paper PMC4604168 (melanoma cell lines).
Some of the results follow. Single values are uncertain, as repeats are few or missing.

Assays:
Experiment in all cases: cell count relative to DMSO control; melanoma cells; higher = more viable cells
Conditions in all cases: library dose: standard library concentration; 72 h
[1] = tested on: G361
[2] = tested on: IPC-298
[3] = tested on: IST-MEL1
[4] = tested on: LB2518-MEL
[5] = tested on: LOXIMVI
[6] = tested on: MEL-HO
[7] = tested on: MZ2-MEL
[8] = tested on: MeWo
[9] = tested on: RPMI7951
[10] = tested on: RVH-421
[11] = tested on: SkMel28
[12] = tested on: SkMel2
[13] = tested on: SkMel30
[14] = tested on: SkMel5
[15] = tested on: UACC257
[16] = tested on: UACC62
[17] = tested on: WM115
[18] = tested on: WM1716
[19] = tested on: WM1745
[20] = tested on: WM3526
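Note: cells treated in 1,536-well plates, then fixed and DAPI-stained, with nuclei counted from automated high-throughput microscope images.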

| Compound | cell count [1] [%] | cell count [2] [%] | cell count [3] [%] | cell count [4] [%] | cell count [5] [%] | cell count [6] [%] | cell count [7] [%] | cell count [8] [%] | cell count [9] [%] | cell count [10] [%] | cell count [11] [%] | cell count [12] [%] | cell count [13] [%] | cell count [14] [%] | cell count [15] [%] | cell count [16] [%] | cell count [17] [%] | cell count [18] [%] | cell count [19] [%] | cell count [20] [%] |
| --- | --- | --- | --- | --- | --- | --- | --- | --- | --- | --- | --- | --- | --- | --- | --- | --- | --- | --- | --- | --- |
| C=CCNC1=C2C[C@@H](C)C[C@H](OC)[C@H](O)[C@@H](C)/C=C(\C)[C@H](OC(N)=O)[C@@H](OC)/C=C\C=C(/C)C(=O)NC(=CC1=O)C2=O [Tanespimycin] + CC(C)(C)c1cnc(CSc2cnc(NC(=O)C3CCNCC3)s2)o1 [SNS-032] (first compound 0.01 µM, partner dose 0.05 µM) | 50.7 | 104 | 58.9 | 52.9 | 89.6 | 88.9 | 103 | 71.7 | 13.9 | 70.8 | 77.4 | 72 | 91.4 | 62.7 | 105 | 52.1 | 22.2 | 73.4 | 66.2 | 77.9 |
| C[C@@H](Oc1cc(-c2cnn(C3CCNCC3)c2)cnc1N)c1c(Cl)ccc(F)c1Cl [Crizotinib] + Cn1cncc1[C@@](N)(c1ccc(Cl)cc1)c1ccc2c(c1)c(-c1cccc(Cl)c1)cc(=O)n2C [tipifarnib] (first compound 1 µM, partner dose 0.05 µM) | 68 | 88.1 | 70 | 61.7 | 78.4 | 81.1 | 83.2 | 71.5 | 56.2 | 77.9 | 42.3 | 69.3 | 92.6 | 64.4 | 71.2 | 67.8 | 39 | 53.8 | 65.3 | 58.4 |
| C[C@@H](Oc1cc(-c2cnn(C3CCNCC3)c2)cnc1N)c1c(Cl)ccc(F)c1Cl [Crizotinib] + O=C(O)[C@@H]1[O][Sb](=[O])([O][Sb]2(=[O])[O][C@H]([C@H](O)CO)[C@H](O)[C@H](C(=O)O)[O]2)[O][C@H]([C@H](O)CO)[C@@H]1O [stibogluconate] (first compound 1 µM, partner dose 10 µM) | 89.9 | 110 | 119 | 83.7 | 104 | 96.9 | 120 | 75.8 | 131 | 22.6 | 99 | 110 | 115 | 129 | 114 | 104 | 67.8 | 103 | 106 | 102 |
| C=CCNC1=C2C[C@@H](C)C[C@H](OC)[C@H](O)[C@@H](C)/C=C(\C)[C@H](OC(N)=O)[C@@H](OC)/C=C\C=C(/C)C(=O)NC(=CC1=O)C2=O [Tanespimycin] + Clc1ccc(Nc2nnc(Cc3ccncc3)c3ccccc23)cc1 [vatalanib] (first compound 0.01 µM, partner dose 10 µM) | 32.3 | 60.6 | 61 | 68.8 | 94.3 | 49.4 | 60.8 | 67.3 | 20.8 | 64.5 | 60.8 | 74.2 | 92 | 58.5 | 71.2 | 69.4 | 35.1 | 75.6 | 36.8 | 71.8 |
| CS(=O)(=O)CCNCc1ccc(-c2ccc3ncnc(Nc4ccc(OCc5cccc(F)c5)c(Cl)c4)c3c2)o1 [lapatinib] + CO[C@@H]1[C@H](N(C)C(=O)c2ccccc2)C[C@H]2O[C@]1(C)n1c3ccccc3c3c4c(c5c6ccccc6n2c5c31)C(=O)NC4 [Midostaurin] (first compound 4 µM, partner dose 0.4 µM) | 28.1 | 52 | 46.8 | 53.3 | 50.8 | 53.1 | 36.3 | 56.5 | 13.1 | 64 | 40.2 | 36.5 | 40.6 | 24.3 | 59.6 | 48.5 | 44.9 | 35.2 | 43.8 | 44.7 |
| CS(=O)(=O)CCNCc1ccc(-c2ccc3ncnc(Nc4ccc(OCc5cccc(F)c5)c(Cl)c4)c3c2)o1 [lapatinib] + C=CCn1c(=O)c2cnc(Nc3ccc(N4CCN(C)CC4)cc3)nc2n1-c1cccc(C(C)(C)O)n1 [MK1775] (first compound 4 µM, partner dose 0.1 µM) | 45.7 | 88 | 78.3 | 43.4 | 80.1 | 68.3 | 70.7 | 67.2 | 57 | 77 | 54.9 | 73.8 | 66.3 | 43.8 | 84.7 | 51.7 | 61.9 | 75.3 | 59.5 | 69.3 |
| CNC(=O)c1cc(Oc2ccc(NC(=O)Nc3ccc(Cl)c(C(F)(F)F)c3)cc2)ccn1 [sorafenib] + Cc1nc(Nc2ncc(C(=O)Nc3c(C)cccc3Cl)s2)cc(N2CCN(CCO)CC2)n1 [dasatanib] (first compound 2 µM, partner dose 0.02 µM) | 84.1 | 81.2 | 72.1 | 74.3 | 96.3 | 89.2 | 67 | 77.7 | 33 | 80.8 | 69.6 | 82.5 | 89.9 | 62.4 | 71.1 | 82.4 | 74.2 | 72.7 | 46.3 | 85.8 |
| C=CCNC1=C2C[C@@H](C)C[C@H](OC)[C@H](O)[C@@H](C)/C=C(\C)[C@H](OC(N)=O)[C@@H](OC)/C=C\C=C(/C)C(=O)NC(=CC1=O)C2=O [Tanespimycin] + COc1cc2c(Oc3ccc4[nH]c(C)cc4c3F)ncnc2cc1OCCCN1CCCC1 [cediranib] (first compound 0.01 µM, partner dose 2 µM) | 68.1 | 101 | 58.4 | 78.8 | 69.5 | 85.7 | 108 | 71.2 | 10.7 | 73.6 | 23.9 | 77 | 81.9 | 68.3 | 96.3 | 57.7 | 21.8 | 76.7 | 48.1 | 59.4 |
| C[C@@H](Oc1cc(-c2cnn(C3CCNCC3)c2)cnc1N)c1c(Cl)ccc(F)c1Cl [Crizotinib] + Clc1ccc(Nc2nnc(Cc3ccncc3)c3ccccc23)cc1 [vatalanib] (first compound 1 µM, partner dose 10 µM) | 53.9 | 78.3 | 68.8 | 75.6 | 114 | 43.7 | 66.4 | 60.7 | 56.8 | 61.2 | 74.8 | 71.6 | 94.1 | 52.1 | 71.7 | 62.1 | 65.4 | 91.2 | 56.1 | 61.9 |
| CN1CCN(c2ccc3nc(-c4c(N)c5c(F)cccc5[nH]c4=O)[nH]c3c2)CC1 [Dovitinib] + Oc1cc(-c2nc(-c3ccccc3)[nH]c2-c2ccncc2)ccc1Cl [L779450] (first compound 0.5 µM, partner dose 1 µM) | 31.3 | 60.8 | 66 | 60.2 | 48 | 66.8 | 47.6 | 55.6 | 67.6 | 24.5 | 35.1 | 15.7 | 70.5 | 46.5 | 74.4 | 47.8 | 40.9 | 56.2 | – | 45.9 |
| C=CCNC1=C2C[C@@H](C)C[C@H](OC)[C@H](O)[C@@H](C)/C=C(\C)[C@H](OC(N)=O)[C@@H](OC)/C=C\C=C(/C)C(=O)NC(=CC1=O)C2=O [Tanespimycin] + CC(=O)c1c(C)c2cnc(Nc3ccc(N4CCNCC4)cn3)nc2n(C2CCCC2)c1=O [palbociclib] (first compound 0.01 µM, partner dose 0.2 µM) | 55.6 | 59.6 | 44.3 | 50.5 | 99 | 84.9 | 66.5 | 55.6 | 23.2 | 76.5 | 36.3 | 61.1 | 59.5 | 45.2 | 69 | 36.9 | 25.4 | 33.5 | 54.5 | 39.8 |
| C=CCNC1=C2C[C@@H](C)C[C@H](OC)[C@H](O)[C@@H](C)/C=C(\C)[C@H](OC(N)=O)[C@@H](OC)/C=C\C=C(/C)C(=O)NC(=CC1=O)C2=O [Tanespimycin] + CC(C)CCN1c2nc(Nc3cc(F)c(O)c(F)c3)ncc2N(C)C(=O)C1C [BID1870] (first compound 0.01 µM, partner dose 1 µM) | 38.6 | 58.5 | 49.5 | 62.9 | 93.4 | 62.8 | 97 | 45.1 | 20.3 | 85.4 | 27.8 | 54.8 | 85.6 | 43.3 | 90.8 | 58.4 | 29.7 | 51.6 | – | 50.1 |
| CS(=O)(=O)CCNCc1ccc(-c2ccc3ncnc(Nc4ccc(OCc5cccc(F)c5)c(Cl)c4)c3c2)o1 [lapatinib] + C[C@@H]1CCN(C(=O)CC#N)C[C@@H]1N(C)c1ncnc2[nH]ccc12 [CP690550] (first compound 4 µM, partner dose 5 µM) | 68.8 | 88.9 | 113 | 106 | 95.5 | 86.9 | 87.6 | 81 | 67.3 | 104 | 106 | 83.8 | 95.7 | 64.7 | 82 | 81.7 | 104 | 102 | 97.6 | 66.9 |
| CNC(=O)c1cc(Oc2ccc(NC(=O)Nc3ccc(Cl)c(C(F)(F)F)c3)cc2)ccn1 [sorafenib] + Nc1nc(F)nc2c1ncn2[C@@H]1O[C@H](CO)[C@@H](O)[C@@H]1O [fludarabine] (first compound 2 µM, partner dose 1 µM) | 77.8 | 66.4 | 82.4 | 101 | 153 | 85.1 | 98.9 | 74.5 | 49.6 | 99.9 | 6.37 | 3.66 | 26.5 | 39.9 | 57.1 | 83.2 | 121 | 99.3 | 77.2 | 45.6 |
| C=CCNC1=C2C[C@@H](C)C[C@H](OC)[C@H](O)[C@@H](C)/C=C(\C)[C@H](OC(N)=O)[C@@H](OC)/C=C\C=C(/C)C(=O)NC(=CC1=O)C2=O [Tanespimycin] + NCC(=O)Nc1ccc(-n2nc(C(F)(F)F)cc2-c2ccc3c(ccc4ccccc43)c2)cc1 [OSU03012] (first compound 0.01 µM, partner dose 5 µM) | 73.6 | 59.2 | 172 | 78.7 | 65.1 | 80.1 | 94.5 | 80.2 | 34.2 | 98.4 | 19 | 32.2 | 49.2 | 39.5 | 73.3 | 65.7 | 26.5 | 73.8 | 72.1 | 49 |
| CN1CCN(c2ccc3nc(-c4c(N)c5c(F)cccc5[nH]c4=O)[nH]c3c2)CC1 [Dovitinib] + O=C(O)[C@@H]1[O][Sb](=[O])([O][Sb]2(=[O])[O][C@H]([C@H](O)CO)[C@H](O)[C@H](C(=O)O)[O]2)[O][C@H]([C@H](O)CO)[C@@H]1O [stibogluconate] (first compound 0.5 µM, partner dose 10 µM) | 65.8 | 52.6 | 77.4 | 58.7 | 111 | 76.8 | 56.8 | 42.5 | 83.6 | 54.1 | 52.8 | 89 | 78.1 | 73.4 | 97.1 | 77.6 | 61.8 | 68.2 | 67.5 | 72.7 |
